According to article PMC4336329 (PLoS ONE, 2015):
Screen size: about 310,000 compounds; about 14,000 (4.5%) showed an effect of 50% or more. The effect is printed as a negative number. The list shows a part of the results.

target: human ether-à-go-go-related gene (hERG) potassium channel (human, UniProt Q12809); assay: primary screen, population patch clamp on CHO cells stably expressing hERG
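Further: peak tail current of the secondary pulse compared with the same well before compound.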

human ether-à-go-go-related gene (hERG) potassium channel, sequence (Q12809 whole entry, looked up): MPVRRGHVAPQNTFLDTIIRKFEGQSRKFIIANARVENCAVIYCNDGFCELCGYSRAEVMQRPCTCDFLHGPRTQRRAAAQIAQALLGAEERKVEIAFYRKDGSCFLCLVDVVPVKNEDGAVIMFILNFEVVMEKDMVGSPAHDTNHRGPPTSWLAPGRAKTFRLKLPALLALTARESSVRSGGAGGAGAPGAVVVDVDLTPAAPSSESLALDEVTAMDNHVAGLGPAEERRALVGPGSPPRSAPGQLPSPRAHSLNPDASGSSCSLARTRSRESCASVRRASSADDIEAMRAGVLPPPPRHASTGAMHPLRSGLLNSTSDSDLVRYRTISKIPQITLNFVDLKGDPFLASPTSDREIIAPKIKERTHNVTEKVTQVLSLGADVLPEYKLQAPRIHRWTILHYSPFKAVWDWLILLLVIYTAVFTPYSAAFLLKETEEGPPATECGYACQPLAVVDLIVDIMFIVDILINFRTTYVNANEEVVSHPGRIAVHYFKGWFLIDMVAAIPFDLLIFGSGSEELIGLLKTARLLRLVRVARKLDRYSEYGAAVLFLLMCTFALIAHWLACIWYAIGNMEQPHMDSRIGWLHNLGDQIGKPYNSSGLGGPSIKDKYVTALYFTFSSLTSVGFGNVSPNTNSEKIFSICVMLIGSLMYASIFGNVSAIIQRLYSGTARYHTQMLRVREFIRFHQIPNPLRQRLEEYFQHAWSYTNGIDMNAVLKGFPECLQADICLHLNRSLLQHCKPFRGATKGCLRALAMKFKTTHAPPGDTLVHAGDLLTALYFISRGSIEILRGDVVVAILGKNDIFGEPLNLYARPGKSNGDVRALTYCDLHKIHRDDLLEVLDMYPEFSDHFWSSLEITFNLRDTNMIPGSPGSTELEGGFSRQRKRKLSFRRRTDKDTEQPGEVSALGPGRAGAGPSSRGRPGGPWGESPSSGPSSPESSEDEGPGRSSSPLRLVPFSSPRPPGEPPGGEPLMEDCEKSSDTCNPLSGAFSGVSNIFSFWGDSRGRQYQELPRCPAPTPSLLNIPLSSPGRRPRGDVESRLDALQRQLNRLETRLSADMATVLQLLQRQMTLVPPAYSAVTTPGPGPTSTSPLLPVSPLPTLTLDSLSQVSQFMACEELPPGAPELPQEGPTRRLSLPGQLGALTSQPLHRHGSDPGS

Row | Structure (SMILES) | hERG current change (%, negative = inhibition) at 10uM [%]
1 | COc1ccccc1CNc1cc(CSc2ccc(Cl)cc2)nc(C)n1 | -0.554
2 | COc1ccc(C(=O)O)cc1NS(=O)(=O)c1cccc2nsnc12 | 7.93
3 | Cc1ccc(C(=O)NCCNS(=O)(=O)c2ccccc2)cn1 | 12.7
4 | COc1ccc(NC2CC(=O)N(c3cccc(C)c3)C2=O)cc1 (stereo not shown) | 12.9
5 | CCN(CC(=O)Nc1ccc(NC(C)=O)cc1)C(=O)c1ccc2c(c1)OCO2 | 5.64
6 | CCn1c(NC(=O)c2ccccc2)c(-c2cccs2)c(=O)c2ccccc21 | 0.859
7 | CCCCc1nc2sc3c(c2c(=O)n1NC(=O)c1ccco1)CC(C)(C)OC3 | 6.37
8 | CNC(=O)c1ccc2nc(NC(C)=O)sc2c1 | -14.8
9 | Cc1nc(SCc2cccc(F)c2)c2oc3ccccc3c2n1 | 20.2
10 | Cn1c(SCC(=O)NC2CC2)nnc1-c1ccc(Cl)cc1 | 3.25
11 | COc1cc(C)nc(Oc2ccc(OCc3ccccc3)nn2)n1 | -0.784
12 | Cc1c(C(=O)N2CCN(c3ccc([N+](=O)[O-])cc3)CC2)sc2ncn(CC(=O)N3CCOCC3)c(=O)c12 | -62.2
13 | CCNC(=O)CSc1nc2ccccc2c(=O)n1-c1cccc(OC)c1 | 32.7
14 | O=S(=O)(c1ccccc1)N(CC1CO1)c1cccc2ccccc12 (stereo not shown) | -11.9
15 | CCOC(=O)c1c(C)[nH]c(C)c1C(=O)COC(=O)[C@@H](NC(=O)c1ccccc1OCC)C(C)C | -10.7
16 | CC(=O)n1cc([C@H]2C=C(C(=O)N3CCN(Cc4ccccc4)CC3)O[C@@H](OCc3ccc(CO)cc3)C2)c2ccccc21 | -24
17 | COc1ccc(NS(=O)(=O)c2cccc(N3CC(O)=C(c4ccccc4)C3=N)c2)cc1 | 40.4
18 | CC(/C=C1\SC(=S)N(CCC(=O)Nc2cccc(C(=O)O)c2)C1=O)=C\c1ccccc1 | 10.9
19 | COC(C[C@H](O)C[C@H](O)[C@H](C)OCc1ccccc1)OC | 9.09
20 | CSCCC(NC(=O)c1ccco1)C(=O)N1CC=C(c2ccccc2)CC1 (stereo not shown) | -48
21 | CCOc1ccc(/C=C2\CCCc3c2nc2ccccc2c3C(=O)O)cc1OC | 4.76
22 | O=C1CSC(=S)N1/N=C/c1cccc(C(F)(F)F)c1 | 7.26

Row | Structure (SMILES) | hERG current change (%, negative = inhibition) at 10uM [%]
23 | Cc1ccc(C2=Nc3cccnc3C(c3ccccc3)=NN2)cc1 | 0.802
24 | C/C(CC(=O)Nc1ccc2c(c1)OCO2)=N\NC(=O)c1ccc(N)cc1 | 5.8
25 | COC(=O)NCc1cccc(CNC(=O)OC)c1 | 3.66
26 | COCC(=O)OC/C(O)=C(\C#N)c1nc2ccccc2[nH]1 | 11
27 | Cn1ncc(Cl)c1C(=O)N1CCN(c2ncccn2)CC1 | 13.7
28 | CC1CN(S(=O)(=O)c2ccc(C(=O)Nc3ccc(S(=O)(=O)N4CCOCC4)cc3)cc2)CC(C)O1 (stereo not shown) | 19.9
29 | CCOc1ccc(C(=O)Oc2ccc(NC(C)=O)cc2)cc1 | 13.2
30 | Cc1cc(=O)oc(C)c1C(=O)NNC(=O)C1(C)CC1Br (stereo not shown) | 22.3
31 | OC(CNCc1ccc2c(c1)OCO2)COc1ccc(F)cc1 (stereo not shown) | -55.7
32 | Cc1ccc(C(=O)NNC(=S)Nc2cccc(Cl)c2Cl)cc1[N+](=O)[O-] | 22
33 | O=C(c1cccc(S(=O)(=O)Nc2ccccc2F)c1)N1CCN(c2ccccc2F)CC1 | -21.5
34 | C=CCn1c(O)c(C(C)=NCCC2=CCCCC2)c(=O)[nH]c1=O | 0.12
35 | Nc1cc(=O)[nH]c(SCc2ccccc2Cl)n1 | 3.76
36 | CC(=O)Nc1ccn(Cc2c(F)cccc2Cl)n1 | 13.5
37 | Cc1ccc(NC(=O)CSc2ncn(-c3ccccc3)n2)cc1C | -0.35
38 | Cc1cc(N2CCN(c3ccccc3)CC2)n2nnnc2n1 | -3.56
39 | Cc1ccc(C(=O)COc2ccc3c(C)cc(=O)oc3c2)cc1 | -1.49
40 | O=C(NC1CCN(C(=S)Nc2ccccc2)CC1)C1CCCCC1 | -15.2
41 | CN1CCN(Cc2ccc(OC(F)(F)F)cc2)CC1 | -38.1
42 | CCC(NC(=O)c1cc(COc2ccc(Cl)cc2OC)on1)c1ccncc1 (stereo not shown) | -24
43 | CCc1ccc(CN(C)C(=O)c2ccc3c(c2)OCCO3)cc1 | 6.09
44 | O=C(O)c1ccc(Cl)c(S(=O)(=O)N2CCCC2)c1 | 15.5

Row | Structure (SMILES) | hERG current change (%, negative = inhibition) at 10uM [%]
45 | COc1ccc(CC(=O)NC2CCCCCC2)c(OC)c1 | -3.09
46 | CC(C)NC(=O)c1cccc(C(F)(F)F)c1 | -10.7
47 | CC(NC(=O)COC(=O)CNC(=O)c1ccc(-c2ccccc2)cc1)c1ccccc1 (stereo not shown) | 11.8
48 | O=C(CSc1ncccn1)Nn1cnnc1 | 8.45
49 | CCN1C(=O)C2(C(C#N)=C(N)Oc3cc(C)oc(=O)c32)c2ccccc21 (stereo not shown) | 4.58
50 | CC(=O)c1c(C)[nH]c(C(=O)OCC(=O)Nc2ccc(Cl)c(S(=O)(=O)N(C)C)c2)c1C | -17.6
51 | Cc1ccc(-n2nnc3c(=O)n(CC(=O)NCc4ccccc4)cnc32)cc1 | -15.5
52 | CCc1cc(=O)oc2cc(C)cc(OCC(=O)N[C@@H](CSCc3ccccc3)C(=O)O)c12 | 4.48
53 | Cc1ccc(NN2C(=O)C=CC2=O)cc1 | 0.632
54 | O=C1C=C(NNC(=O)c2ccccc2Br)CCC1 | 13.2
55 | Cc1ccc2oc(=O)n(Cc3ccc(OC(C)C)cc3)c2c1 | -0.385
56 | CC(C)n1c(-c2ccc(C(C)(C)C)cc2)n[nH]c1=S | 10.5
57 | COc1cccc2sc(=NC(=O)CCS(=O)(=O)c3ccc(C)cc3)n(C)c12 | 8.32
58 | O=C(c1ccco1)N1CCN(C(=O)N2CCCC2)CC1 | -8.27
59 | COC(=O)c1c(C(=O)OC)c(C)n(Cc2cccnc2)c1C | -5.53
60 | CC1CCCCN1CCCNC(=O)c1ccc(N2CCCC2=O)cc1 (stereo not shown) | 14.4
61 | COc1ccc(/C=N/NC(=O)c2cccc([N+](=O)[O-])c2)cc1O | 0.427
62 | COc1cc(OC)c(N(C)S(=O)(=O)c2cccc(C(=O)NC(C)C3CC4CCC3C4)c2)cc1Cl (stereo not shown) | -2.47
63 | Nc1[nH]nc2ncc3cc4ccccc4nc3c12 | 26.8
64 | O=c1c2cc(Br)ccc2nc(-c2cccc(C(F)(F)F)c2)n1O | 24.4
65 | COc1cccc(N2C(=O)C3NN=C(C(=O)CN4C(=O)c5ccccc5C4=O)C3C2=O)c1 (stereo not shown) | 9.7
66 | CCOc1ccc(C(CC(=O)O)NC(=O)c2sc3ccccc3c2Cl)cc1 (stereo not shown) | 12.5

Row | Structure (SMILES) | hERG current change (%, negative = inhibition) at 10uM [%]
67 | O=C(CN(Cc1ccco1)C(=O)CNS(=O)(=O)c1ccc(F)cc1)NCc1ccc(F)cc1 | -30.8
68 | O=C(NC(=S)Nc1ccc(Br)cn1)c1cncc(Br)c1 | 11.3
69 | COc1ccc(N(CC(=O)NC2CCCC2)S(=O)(=O)c2c(C)[nH]c(=O)[nH]c2=O)cc1 | 10.2
70 | Cc1ccccc1CC(=O)N1CCN(C(=O)c2ccco2)CC1 | 6.8
71 | O=C(CNCCC1=CCCCC1)Nc1ccccc1N1CCCCCC1.O=C(O)C(=O)O | -4.2
72 | COC(=O)c1nn(-c2cccc(C(F)(F)F)c2)ccc1=O | 1.6
73 | Clc1ccc(Oc2nc3ccccc3n3cccc23)cc1 | 18
74 | CC(=O)Nc1ccc(C(=O)Nc2nc(-c3cc(C)n(Cc4ccccc4)c3C)cs2)cc1 | 11
75 | O=C(CN(Cc1ccccc1)S(=O)(=O)c1ccc(F)cc1)NCCC1=CCCCC1 | -0.583
76 | O=C(O)c1cc2c(cc1NC(=O)c1ccccc1OC(F)F)OCCCO2 | 24.4
77 | COc1ccccc1C(CNC(=O)CN(C)S(=O)(=O)c1ccc(C)cc1)N1CCCC1 (stereo not shown) | -28.6
78 | Cc1onc(-c2c(F)cccc2Cl)c1C(=O)N(C)C1CCCCC1 | 2.65
79 | Cc1nc2ccccc2n1CCCOc1ccccc1 | -17.9
80 | COc1cc(CNCCCN2CCOCC2)ccc1OCC(=O)NC(C)(C)C.Cl | 21
81 | N=c1c2c(-c3ccccc3)c(-c3ccccc3)n(Cc3ccccc3)c2ncn1CCO | -37.6
82 | O=C(OCC(=O)N1CCN(C(=O)COC(=O)c2ccncc2)CC1)c1ccncc1 | 6.74
83 | Cc1c(O)ccc(-c2[nH]ncc2-c2nc3ccccc3s2)c1O | 8.96
84 | COP(C)(=O)c1c(C)nn(-c2ccccc2)c1C (stereo not shown) | 8.29
85 | CN(C)C(/C=C/Nc1ccc(F)cc1F)=C(C#N)C#N | 5.04
86 | C/C(=N\NC(=O)CN(c1ccccc1Br)S(C)(=O)=O)c1ccc2c(c1)OCCO2 | -18.7
87 | Cc1cccc(NC(=O)N2CCC(n3nnc4cc(C)ccc43)CC2)c1 | -62.9
88 | O=[N+]([O-])c1ccc(N2CCN(c3nc(-c4ccc(Cl)cc4)cs3)CC2)cc1 | 1.29
